Data from paper PMC6212790.
The list shows a part of the results. At the low end of the ranking the order means little.

target: T1, GST-Rok-C97-191 (UniProt O34857); test: protein binding microarray; details: Rok is a gene silencer of Bacillus subtilis; high values mean tight binding; most listed sequences are background and not binding sites; double strand, one strand shown;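 further: rank score from −0.5 (least bound) to 0.5 (best bound)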
T1 sequence: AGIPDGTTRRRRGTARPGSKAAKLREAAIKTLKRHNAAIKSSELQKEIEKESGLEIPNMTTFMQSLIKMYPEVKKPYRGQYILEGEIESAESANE

Row | Sequence | binding signal
1 | ACCAACAG | 0.0332 E-score
2 | AACGTGTA | -0.00204 E-score
3 | CCCTAGCA | -0.0672 E-score
4 | GATTATGC | 0.165 E-score
5 | AACCATGT | 0.02 E-score
6 | CCTAGACA | -0.185 E-score
7 | ACGGGTAG | 0.0714 E-score
8 | GACACTAC | -0.0975 E-score
9 | CTCAGAAG | -0.263 E-score
10 | AGCCTTGC | -0.291 E-score
11 | ATTGTTGA | 0.102 E-score
12 | AGGGATAG | 0.0205 E-score
13 | CCGATTCC | -0.211 E-score
14 | GCCCTACC | 0.0439 E-score
15 | ACACATAT | 0.073 E-score
16 | CATTGCCG | 0.0726 E-score
17 | GTAGTTAA | 0.405 E-score
18 | CCTCAGCA | -0.243 E-score
19 | AGGAGATA | 0.0913 E-score
20 | GGGGAGAA | -0.215 E-score
21 | CAGCGCAG | -0.174 E-score
22 | CCCGAAGC | -0.267 E-score
23 | AGCTCTCA | -0.0429 E-score
24 | ACGCCCAT | -0.205 E-score
25 | GATGGTGA | 0.0589 E-score

Row | Sequence | binding signal
26 | CAGTGGTA | 0.232 E-score
27 | ATTCGAAG | -0.0327 E-score
28 | CTGGTGCA | -0.139 E-score
29 | AGTTACTC | 0.188 E-score
30 | CTGACCAC | -0.115 E-score
31 | TGATACAA | 0.253 E-score
32 | AATGGACT | 0.133 E-score
33 | CATCGGGG | -0.333 E-score
34 | GTATCATA | 0.284 E-score
35 | GGGGGGAA | -0.187 E-score
36 | CACAAGGA | -0.22 E-score
37 | CACTCCAG | -0.153 E-score
38 | AGGGCACA | -0.171 E-score
39 | AGGGGATC | -0.126 E-score
40 | ACACGTTA | -0.0113 E-score
41 | CAACAATG | 0.0621 E-score
42 | CAATCGGC | -0.141 E-score
43 | AATTCCAT | 0.0835 E-score
44 | AAATAGTA | 0.427 E-score
45 | ATGAAATG | 0.148 E-score
46 | CGATCTAG | 0.26 E-score
47 | AGCTAAGC | -0.0319 E-score
48 | CCAAGTGG | -0.13 E-score
49 | ACATTAGA | 0.19 E-score
50 | ATTCCATC | 0.157 E-score

Row | Sequence | binding signal
51 | GTGGAAAC | -0.0423 E-score
52 | ATCACTCG | 0.0113 E-score
53 | CGAGGCAC | -0.157 E-score
54 | CTGGCTCC | -0.351 E-score
55 | AAGGTTGA | 0.063 E-score
56 | AGTCCGAA | -0.0979 E-score
57 | AACATAAT | 0.1 E-score
58 | AATAAGAT | 0.266 E-score
59 | GTGTTTGA | -0.0225 E-score
60 | CCAAAACC | -0.308 E-score
61 | ACACTACA | 0.294 E-score
62 | CACACCTA | 0.192 E-score
63 | TCATAAGA | 0.15 E-score
64 | AATAGATT | 0.352 E-score
65 | ACGATGGC | -0.15 E-score
66 | AATACAGG | -0.0587 E-score
67 | AGGATTTA | 0.0283 E-score
68 | AACCACGG | 0.0533 E-score
69 | AGTGGTTC | -0.175 E-score
70 | CGATTATA | 0.261 E-score
71 | AGCTGCTC | -0.115 E-score
72 | ACGCCAAG | 0.0306 E-score
73 | GTACGGAA | 0.197 E-score
74 | AGAAGCCG | 0.0948 E-score
75 | ACGTCGTC | -0.278 E-score

Row | Sequence | binding signal
76 | GACTTTAC | -0.0515 E-score
77 | ATGGGACC | -0.223 E-score
78 | CTCATCGC | -0.091 E-score
79 | GAAATCGA | -0.114 E-score
80 | ACAGATAG | 0.225 E-score
81 | ATTTACAC | 0.181 E-score
82 | AAACTAGT | 0.445 E-score
83 | ATACCGGC | 0.118 E-score
84 | AACATTGA | 0.0527 E-score
85 | ATTGGTTC | -0.162 E-score
86 | AGAAGTAC | 0.229 E-score
87 | ATTTTGGA | 0.171 E-score
88 | AAGAGTAT | 0.0968 E-score
89 | CCCGACAA | -0.322 E-score
90 | AAATCACG | 0.17 E-score
91 | AAATGCAG | -0.0786 E-score
92 | ATGATTAC | 0.0172 E-score
93 | GGAACGAA | -0.126 E-score
94 | CGGGCCCA | -0.227 E-score
95 | CGACCACA | -0.0849 E-score
96 | AACCATAC | 0.0656 E-score
97 | CGGCTGCA | -0.263 E-score
98 | AGCAGCCC | -0.221 E-score
99 | CGACTAAC | 0.0924 E-score
100 | AAGGTATG | -0.00079 E-score

Row | Sequence | binding signal
101 | AGGCAATC | -0.0559 E-score
102 | ATAGATTG | 0.304 E-score
103 | ACGATAAC | 0.171 E-score
104 | ATCGAGTG | 0.174 E-score
105 | CTCTCTCC | -0.0487 E-score
106 | CCCAGGAA | 0.0625 E-score
107 | ATCTGCGC | -0.0285 E-score
108 | CAGGTCAG | -0.0505 E-score
109 | AAGCTAGT | 0.281 E-score
110 | CAGTTAGC | -0.0251 E-score
111 | TACATTCA | 0.212 E-score
112 | AGATCACG | -0.00769 E-score
113 | ACCCCGCA | -0.265 E-score
114 | AGACTGCA | -0.0933 E-score
115 | GCGCGATA | 0.18 E-score
116 | GGAAACGA | -0.239 E-score
117 | CGTGCGCA | -0.203 E-score
118 | AGTTCGAA | 0.126 E-score
119 | AGGTCGAA | -0.235 E-score
120 | AATTTTCG | 0.0664 E-score
121 | CTAGGCTA | -0.0639 E-score
122 | ATAAGGTG | -0.0756 E-score
123 | CGAGTTCA | 0.0768 E-score
124 | GCCTTGGA | -0.192 E-score
125 | AATGGATA | 0.106 E-score

Row | Sequence | binding signal
126 | GCGACCTA | -0.0775 E-score
127 | GGTATGCA | 0.109 E-score
128 | CACGTCTA | -0.179 E-score
129 | GCCCAACC | -0.238 E-score
130 | CCTCAGCC | -0.314 E-score
131 | GGGTATGA | 0.0974 E-score
132 | AGATAGCC | 0.0439 E-score
133 | GAAACTCC | 0.0382 E-score
134 | ACTAACAG | 0.158 E-score
135 | ACTGGAAC | 0.0447 E-score
136 | ATCTTCCA | -0.0718 E-score
137 | CTACCTAC | 0.376 E-score
138 | GAACGTAA | -0.0744 E-score
139 | CCACAGAA | 0.0912 E-score
140 | CTGAATCA | -0.0426 E-score
141 | GAGTGGTA | 0.208 E-score
142 | AATGGAAG | -0.192 E-score
143 | ACGCCCGT | -0.183 E-score
144 | ACGAACTA | 0.311 E-score
145 | AACACAGA | 0.0193 E-score
146 | ACTAGAGG | -0.0699 E-score
147 | GGTACTAC | 0.233 E-score
148 | CTCGGGGC | 0.0371 E-score
149 | CAATACTC | 0.0112 E-score
150 | AGCCGCAC | -0.188 E-score

Row | Sequence | binding signal
151 | CCTCGTAA | 0.124 E-score
152 | ATTGACCC | -0.177 E-score
153 | CAACTCAG | 0.0532 E-score
154 | ACTAGAGA | 0.118 E-score
155 | ATTGCATG | 0.0708 E-score
156 | TATTATAA | 0.25 E-score
157 | GGAGCGGA | -0.311 E-score
158 | GCGCTTTA | -0.161 E-score
159 | TGGTTTAA | 0.0508 E-score
160 | CCGAGCTA | -0.103 E-score
161 | GCGAGAAC | 0.0535 E-score
162 | CAGGTTCC | -0.263 E-score
163 | GAGGATCC | -0.139 E-score
164 | ACAGGTCC | -0.273 E-score
165 | CGAAGTCC | -0.0993 E-score
166 | AAGGATGG | -0.0809 E-score
167 | ATGCGATG | 0.141 E-score
168 | CAACATTA | 0.0981 E-score
169 | CGGCAGTA | -0.0135 E-score
170 | AAGATCGC | 0.0308 E-score
171 | GTCACTGA | -0.074 E-score
172 | GGATTAGA | 0.105 E-score
